Hit rate of the full screen: of about 52,000 compounds, about 4,300 (8.3%) were called active. Rule as the data show it: active = survival mostly below about 52% (no sharp cut-off); inactive = mostly above about 56%. Some of the results follow.
The compounds below were run on DeltatarO mutant (assay: S. aureus survival, RN4220 and DeltatarO strains – OD600, teichoic acid synthesis inhibitors, primary screen (AID 463173)). Conditions: S. aureus RN4220 wild type/DeltatarO growth, OD600, 18 h, hits give low values, screened at 18.75 µg/mL (by protocol).
In the case of `CN(C)c1ccc(CNC(=O)C2CCCN(S(=O)(=O)c3ccc4c(c3)oc(=O)n4C)C2)cc1` (stereo not given), the survival is reported as inactive: 96%.
For `NC(Cc1ccc2nsnc2c1)C(=O)O` (stereo not given), the survival was inactive: 82%.
`CCc1nonc1NC(=O)c1oc2ccc(F)cc2c1C` was tested, and the survival was inactive: 84%.
For `CCc1c(C)nc(N)n2c(SCc3ccc(C(F)(F)F)cc3)nnc12`, the survival was inactive: 103%.
With `COc1ccc(CCNC(=O)C(=O)NCC(c2ccc3c(c2)OCO3)N2CCOCC2)cc1` (stereo not given) the survival was active: 32%.
For `CC1=C(C(=O)Nc2ccc(Cl)cc2)C(c2ccccc2C)n2ncc(C(=O)Nc3ccc(C)cc3)c2N1` (stereo not given), the survival was inactive: 54%.
`CCN1C(=O)c2ccccc2Sc2ccc(NC(=O)COc3ccc(Cl)cc3)cc21` was tested, and the survival was inactive: 91%.
With `CCOc1ccc(-n2c(SCC(=O)Nc3cccc(Cl)c3)nc3c(oc4ccccc43)c2=O)cc1` the survival was inactive: 58%.
With `COc1ccc(C(=O)CC2(O)C(=O)Nc3c(C)cccc32)c(OC)c1OC` (stereo not given) the survival was inactive: 84%.
With `CCOc1ccc(-c2cnc(NCc3ccc(C(F)(F)F)cc3)n2C)cc1` the survival was active: -3%.
For `Cn1c(=O)n(C/C=C/c2ccccc2)c(=O)c2c1nc1n2CCN1c1ccc(F)cc1`, the survival was inactive: 67%.
For `COc1ccc(S(=O)(=O)NCCc2sc(C)nc2C)cc1F`, the survival was inactive: 88%.
For `Cc1ccc2c(CC(=O)Nc3cccc(Cl)c3C)coc2c1`, the survival was inactive: 100%.
With `Cc1cccc(OCCCCn2c(C3CC(=O)N(c4ccccc4Cl)C3)nc3ccccc32)c1` (stereo not given) the survival was active: 10%.
For `O=C1c2ccccc2C(=O)N1CCc1c[nH]c2ccccc12`, the survival was inactive: 93%.
For `CCN(CC)c1cc(C)c2cc(NC(=O)c3ccc(OC)c(OC)c3)ccc2n1`, the survival was active: 35%.
`CCOC(=O)c1scc(-c2ccccc2)c1S(=O)(=O)N1CCN(c2ccc(Cl)cc2)CC1` was tested, and the survival was inactive: 88%.
In the case of `COc1cccc(N2CCN(C(=O)c3cnc4c(-c5ccccc5)c(C)nn4c3C)CC2)c1`, the survival is reported as inactive: 87%.
For `COc1ccccc1C(=O)Nc1c(C(=O)Nc2cc(Cl)ccc2C)sc2nc(C)cc(C)c12`, the survival was inactive: 59%.
With `O=C(Nc1ccccc1)c1cnc(N2CCCCC2)c2ccccc12` the survival was inactive: 72%.
`COc1ccc(-c2cc(C)no2)cc1S(=O)(=O)N1CCN(c2cccc(C)c2)C(C)C1` (stereo not given) was tested, and the survival was inactive: 77%.
In the case of `Cc1ccccc1NC(=O)NCCc1c[nH]c2ccccc12`, the survival is reported as inactive: 47%.
With `COc1cccc(CN(C(=O)COc2ccc(Cl)c(C)c2)C2CCS(=O)(=O)C2)c1` (stereo not given) the survival was inactive: 71%.
In the case of `O=C(Cn1c(=O)n(-c2ccccc2)c(=O)c2c3c(sc21)CCC3)c1ccc(F)cc1`, the survival is reported as inactive: 63%.
`Cc1c(Cl)cccc1-n1ncc(C(=O)NCCN2CCN(C)CC2)c1C1CCN(C(=O)OC(C)(C)C)CC1` was tested, and the survival was inactive: 75%.

Reference: PubChem BioAssay AID463173 (ICCB-Longwood Screening Facility, Harvard Medical School, 2010)
